From the RNAGym collection of RNA variant scans (doi:10.7554/elife.90254)
Read counts are not given, so values of variants with three or more changes are uncertain.

B1: OR4K15 (parent)
chain: GUUAACGGUCAUAGGCCAUGGAAACUAGGAGCACCAUUUCGCUGCCAGUGAAGAAAUGAACAAAGAAAAUCUGGGCCAGGCAGGCAUCAAAAGAAAUAGUCUUGCGCUCAACCAGAAAGUCUGUAAUCAUUUUAAGGGUA

Variants of: B1
Test: self-cleavage, relative activity (ratio to wild type); higher = more cleavage; in vitro, sequencing; the parent is a self-cleaving ribozyme

Row | Variant | self-cleavage
1 | GUUAACGGACAUAGGCCAUGGAAACUAGGAGCACCAUCUCGCUGCCAGUGAAGAAAUGAACAAGGAAAAUCUGGGCCAGGCAGGCAUCAAAAGAAAUAGUCUUGCGCUCAACCAGAAAGUCUGUAAUCAUUUCAAGGGUA [U9A U38C A64G U133C] | 1.78
2 | GUUAACGGACACAGGCCAUGGAACCUAGGAGCACCAUUUCGCUGCCAGUGAAGAAAUGAACAAAGAAAAUCUGGGCCAGGCAGGCAUCAAAGGAAAUAGUCUUGCGCUCAGCCAGAAAGCCUGUAAUCAUUUUAAGGGUA [U9A U12C A24C A92G A111G U120C] | 0
3 | GUUAACGGCCGUAGGCCAUGGAAACUAGGAGCACCAUUUCGCUGCCAGUGAGGAAAUGAACAAAGAAAAUCUGGGCCAGGCAGGCAUCAAAAGAAAUAGUCUUGCGCUCAACCAGGAAGUCUGUAAUCAUUUUAAGGGUA [U9C A11G A52G A116G] | 1.46
4 | GUUAACGGACAUAGGCCAUGGAAACUAGGAGCACCAUUUCGCUGCCAGUGAAGAAAUGAACAAAGAAAAUCUGGGCCAGGCAGGCGUCAAAAGAAAUAGUCCUGCGCUCAACCAGAAAGUCUGUAAUCAUUUUAAGGGUA [U9A A86G U102C] | 1.57
5 | GUUAACGGACAUAGGCCAUGGAAACUAGGAGCACCAUUUCGCUGCCAGUGAAGAAAUGAACAAAGAAAAUCUGGGCCAGGCAGGCAACAAAAGAGAUAGUCUUGCGCUCAACCAGAAAGUCUGUAAUCAUUUUAAGGGUA [U9A U87A A95G] | 0.74
6 | GUUAACGGACAUAGGCCAAGGAAACUAGGAGCACCACUUCGCUGCCAGUGAAGAAAUGAACAAAGAAAAUCUGGGCCAGGCAGGCAUCAAAAGAAAUAGUCUUGCGCCCAACCAGGAAGUCUGUAACCAUUUUAAGGGUA [U9A U19A U37C U108C A116G U127C] | 0.01
7 | GUUAACGGCCGUAGGCCAUGGAAACUAGGAGCACCAUUUCGCUGCCAGUGAAGUAAUGAACAAAGAAAAUCUGGGCCAGGCUGGCAUCAAAAGAAAUAGUCUUGCGCUCGACCAGAAAGUCUGUAACCAUUUUAAGGGUA [U9C A11G A54U A82U A110G U127C] | 0.03
8 | GUUAACGGACAUAGGCCAUGGAAACUAGGAGCACCAUUUCGCUGCCAGUGAAGAAAUGAACAAAGAAAAUCUGGGCCAGGCAGGCAUCAAAAGAAAUAGUCUUGCGCUCAACCAGGAAGUCUGUAGUCAUUUUAAGGGUA [U9A A116G A126G] | 0.15
9 | GUUAACGGACAUAGGCCAUGGAAACUAGGAGCACCAUCUCGCUGCCAGUGAAGAAAUGAACGAAGAAAAUCUGCGCCAGGCAGGCAUCAAAAGAAAUAGUCUUGCGCUCAACCAGAAAGUCUGUAAUCAUUAUAAGGGUA [U9A U38C A62G G74C U132A] | 0.2
10 | GUUAACGGACAUAGGCCAUGGAAACUAGGAGCACCAUUUCGCUGCCAGUGAAGAAAUGAACAAAGAAAACCUGGGCCAGGCAGGCAUCAAAAGAAAUAGUCUUGCGCUCAACCAGAAAGUCUGUAAUCAUUUUAAGAGUA [U9A U70C G137A] | 0.68
11 | GUUAACGGACAUAGGCCAAGGAAACUAGGAGCACCAUUUCGCUGCCAGUGAAGAAAUGAACAAAGAGAAUCUGGGCCAGGCAGGCAUCAAAAGAAAUAGUCUUGCGCUCAUCCAGAAAGUCUGUAAUCAUUUUAAGGGUA [U9A U19A A67G A111U] | 0.03
12 | GUUAACGGACAUAGGCCAUGGAAACUAGGAGCACCACUUCGCUGCCAGUGAAGAAAUGAACAAAGAAAAUCUGGGCCAGGCAGGCAUCAAAAGAAAUAGCCUUGCGCUCAACCAGAAAGUCUGUAAUCAUUUUAAGGGUA [U9A U37C U100C] | 1.58
13 | GUUAACGGCCGUAGGCCAUGGGAACUAGGAGCACCAUUUCGCUGCCAGUGAAGAAAUGAACAAAGAAGAUCUGGGCCAGGCAGGCAUCAAAAGAAAUAGUCUUGCGCUCAACCAGAAAGUCUGUAAUCAUUUUAAGGGUA [U9C A11G A22G A68G] | 1.43
14 | GUUAACGGACAUAGGCCACGGUAACUAGGAGCACCAUUUCGCUGCCAGUGGAGAAAUGAACAAAGAAAAUCUGGGCCAGGCAGGCAUCAAAAGAAAUAGUCUUGCGCUCAACCAGAAAGUCUGUAAUCAUUUUAAGGGUA [U9A U19C A22U A51G] | 0.47
15 | GUUAACGGACAUAGGCCAUGGAAACUAGGAGCACCAUUUCGCUGCCAGUGAAGAAAUGAACAAAGAAAAUCUGGGCCAGGCAGGCAUCAAAAGAAAUAGUCUUGCGCUCAACCAGAAAGCCCGUAAUCAUUUUAAGGGUA [U9A U120C U122C] | 0.62
16 | GUUAACGGACAUAGGCCAUGGAAACUAGGAGCACCAUUCCGCUGCCAGUGAAGAAAUGAACAAAGAAAAUCUGGGCCAGGCAGGCAUCAAAAGAAAUAGUCUUGCGCUCAACCAGAAAGUCUGUAAUCAUUUUAAGGGUG [U9A U39C A140G] | 0.83
17 | GUUAACGGACAUAGGCCAUGGAAACUAGGAGCACCAUUUCGCCGCCAGUGAAGAAAUGAACAAAGAAAAUCUGGGCCAGGCAGGCAUCAAAAGAAAUAGUCUUGCGCUCAACCAGAAAGUCUGUAAUCAUUUUGAGGGUA [U9A U43C A134G] | 1.72
18 | GUUAACGGACAUAGGCCAUGGAAACUAGGAGCACCAUUUCGCUGCCAGUGAAGAAAUGAACAAAGAAAAUCCGGGCCAGGCAGGCAUCAAAAGAACUAGUCUUGCGCUCAACCAGAAAGUCUGUAAUCAUUUUAAGGGUA [U9A U72C A96C] | 0.08
19 | GUUAACGGACAUAGGCCAUGGAAACUAGGAGCACCAUUUCGCUGCCAGUGAAGAAAUGAACAAAGAAAAUCAGGGCCAGGCAGGCAUCAAAAGUAAUAGUCUUGCGCUCAACCAGGAAGUCUGUAAUCAUCUUAAGGGUA [U9A U72A A94U A116G U131C] | 0.02
20 | GUUAACGGACAUAGGCCAUGGAAACUAGGAGCACCAUUUCGCUGCCAGUGAAGAAAUGAACAAAGAAAAUCUGGGCCAGGCAGGCAUCAAAAGAAAUAGCCUUGCGCCCAACCAGAAAGUCUGUAAUCAUUUUAAGGGUA [U9A U100C U108C] | 0.03
21 | GUUAACGGACAUAGGCCAUGGAAACUAGGAGCACCAUUUCGCUGCCAGUGAAGAAAGGAACAAAGAAAAUCUGGGCCAGGCAGGCAUCAAAAGAAGUAGUCUUGCGCUCAACCAGAAAGUCUGUAAUCAUUUUAAGGGUA [U9A U57G A96G] | 1.34
